The results in this text go back to the supplement of paper PMC11348887.

Structures are written as SMILES. Structures can show the parent of a compound that is named as a salt. Some of the results follow. Cut-off read from the data, not from the text of the source: active = -2 or less and inactive = the rest. Single values are uncertain, as repeats are few or missing.
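Note: nuclei counted from DAPI counterstain by automated high-content image analysis, four fields per well at ×20 in 384-well plates, with sequential b-score then z-score normalization.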

For the experiment, the system named is hPSC-derived cortical neurons (WA09). The experiment can be described thus: nuclei number (viability) z-score; higher = more surviving cells. Particulars: 5 µM; treatment: days 7-14 after plating, readout day 21.
As to `CCCC(=O)Nc1cccc(NC(=O)c2ccccc2Br)c1`, the “nuclei number (z-score)” value is inactive: 0.0126.

Consider `O=C(c1ccc(Cl)cc1Cl)n1nnc2ccccc21`, for which the “nuclei number (z-score)” value was inactive: 0.56. The result for `COc1cc(-c2cc(-c3cccc(O)c3)cnc2N)cc(OC)c1OC` reads inactive: 3.13. For `O=C(O)c1ccc(O)c2ncccc12` the value was inactive: -1.45; for `COc1cc2ncnc(Nc3ccc(O)c(Br)c3)c2cc1OC`, inactive: 2.51; for `O=C(NC1CC1)c1cc(-c2cccs2)on1` [Isoxazole 9 (ISX-9)], inactive: 0.0752.

`Oc1cc(O)cc(/C=C/c2ccc(O)c(O)c2)c1` [Piceatannol]: the “nuclei number (z-score)” value was inactive: 0.2. For `Nc1nc(=O)[nH]cc1F` [Flucytosine], the “nuclei number (z-score)” value is inactive: 1.2.

For `Nc1nnc(-c2cccc(Cl)c2Cl)c(N)n1` [Lamotrigine], the “nuclei number (z-score)” value was inactive: 0.901. The result for `Cc1cc(Nc2cc(CN3CCOCC3)c3nc(C)c(Cc4ccc(Cl)cc4F)n3n2)n[nH]1` reads inactive: 1.15. `CCOC(=O)N[C@@H]1CC[C@@H]2[C@@H](C1)C[C@H]1C(=O)O[C@H](C)[C@H]1[C@H]2/C=C/c1ccc(-c2cccc(F)c2)cn1` [Vorapaxar]: the “nuclei number (z-score)” value was inactive: 0.595. For `CC[C@@]1(O)C(=O)OCc2c1cc1n(c2=O)Cc2cc3c(CN(C)C)c(O)ccc3nc2-1` [Topotecan HCl] the value was inactive: -0.447. `CN(C)C(=O)c1cc2cnc(Nc3ccc(N4CCNCC4)cn3)nc2n1C1CCCC1`: the “nuclei number (z-score)” value was inactive: 1.03. For `CC(=O)O[C@]1(C(C)=O)CC[C@H]2[C@@H]3C=C(C)C4=CC(=O)CC[C@]4(C)[C@H]3CC[C@@]21C` [Megestrol Acetate] the value was inactive: 0.139; for `C=C1[C@H](CO)[C@@H](O)C[C@@H]1n1cnc2c(=O)[nH]c(N)nc21` [Entecavir Hydrate], inactive: 1.81. For `CN1CCN(c2ccc(Nc3cc(-c4cccc(-n5ccc6cc(C7CC7)cc(F)c6c5=O)c4CO)cn(C)c3=O)nc2)CC1` the value was inactive: -1.25; for `COc1ccc2c(c1)c(CC(=O)OCC(=O)O)c(C)n2C(=O)c1ccc(Cl)cc1` [Acemetacin], inactive: 1.61; for `CC(=O)NC[C@H]1CN(c2ccc(N3CCOCC3)c(F)c2)C(=O)O1` [Linezolid], inactive: -0.00916.

Regarding `Cc1nccn1CC1CCc2c(c3ccccc3n2C)C1=O` (stereo not drawn) [Ondansetron HCl], the “nuclei number (z-score)” value was inactive: -1.75. In the case of `Cn1sc(=O)n(Cc2ccccc2)c1=O`, the “nuclei number (z-score)” value was inactive: -0.245. As for `COc1cc2c(cc1Cc1cccc(Cl)c1F)c(=O)c(C(=O)O)cn2[C@H](CO)C(C)C` [Elvitegravir (GS-9137_ JTK-303)], the “nuclei number (z-score)” value is inactive: -0.538. For `COc1ccc2cc3[n+](cc2c1OC)CCc1cc2c(cc1-3)OCO2` [Berberine HCl] the value was active: -7.96. The result for `CC(C)CCCCC(=O)N[C@@H](CCN)C(=O)N[C@H](C(=O)N[C@@H](CCN)C(=O)N[C@H]1CCNC(=O)[C@H]([C@@H](C)O)NC(=O)[C@H](CCN)NC(=O)[C@H](CCN)NC(=O)[C@H](CC(C)C)NC(=O)[C@@H](Cc2ccccc2)NC(=O)[C@H](CCN)NC1=O)[C@@H](C)O` [Polymyxin B sulphate] reads inactive: 0.49; that for `CC(C)(C)OC(=O)Nc1ccc(-c2cc(C(=O)NCCCCCCC(=O)NO)no2)cc1`, active: -2.82.

In the case of `Nc1ccccc1NC(=O)c1ccc(CNc2nccc(-c3cccnc3)n2)cc1` [Mocetinostat (MGCD0103)], the “nuclei number (z-score)” value is active: -4.93.

In the case of `COc1cc(-c2cc(-c3ccc(N4CCNCC4)cc3)cnc2C)cc(OC)c1OC`, the “nuclei number (z-score)” value is inactive: -0.25. For `Cc1ccc(S(=O)(=O)/C=C/C#N)cc1` the value was active: -5.83; for `CC1=C(C(=O)O)N2C(=O)[C@@H](NC(=O)[C@H](N)c3ccccc3)[C@H]2SC1` [Cephalexin], inactive: -1.53; for `Cc1cccn2c(=O)c(-c3nnn[nH]3)cnc12` [Pemirolast potassium], inactive: -0.0481. For `CC[C@H](C)C(=O)O[C@H]1C[C@H](O)C=C2C=C[C@H](C)[C@H](CC[C@@H](O)C[C@@H](O)CC(=O)O)[C@H]21` [Pravastatin sodium] the value was inactive: -0.123; for `Oc1nc(-c2ccc(C(F)(F)F)cc2)nc2c1CSCC2`, inactive: -0.383; for `Cc1nc2ccc(NC(=O)Nc3ccnc4cccnc34)cc2o1`, inactive: 0.405.

In the case of `NC1=NCC2c3ccccc3Cc3ccccc3N12` (stereo not drawn) [Epinastine HCl], the “nuclei number (z-score)” value was inactive: 0.991.

Turning to `NC(=O)N1c2ccccc2CC(=O)c2ccccc21` [Oxcarbazepine], the “nuclei number (z-score)” value is inactive: 2.11. For the compound `CN(C)c1ccc(-c2nc3ncc(Cl)c(N4CCN(CC(=O)Nc5nccs5)CC4)c3[nH]2)cc1`, the “nuclei number (z-score)” value is inactive: 0.15. For `CC(C)Cn1cnc2c(N)nc3ccccc3c21` [Imiquimod] the value was inactive: 1.37. Turning to `CN(C)c1cc(NC(=O)CNC(C)(C)C)c(O)c2c1C[C@H]1C[C@H]3[C@H](N(C)C)C(O)=C(C(N)=O)C(=O)[C@@]3(O)C(O)=C1C2=O` [Tigecycline], the “nuclei number (z-score)” value was inactive: 0.292. The result for `CCNc1nc(Nc2cc(F)c(C(=O)N3CCOCC3)cc2OC)ncc1C(F)(F)F` reads inactive: 0.509. For `COc1cc(NS(=O)(=O)c2ccc(N)cc2)nc(OC)n1` [Sulphadimethoxine] the value was inactive: 0.959. For `CC1(C)O[C@@H]2[C@@H](CO[C@@]3(COS(N)(=O)=O)OC(C)(C)O[C@@H]23)O1` [Topiramate] the value was inactive: 0.465; for `O=C1N=C(O)NC1(c1ccccc1)c1ccccc1` [Phenytoin sodium], inactive: 0.37; for `O=C1Nc2ccc(I)cc2/C1=C/c1cc(Br)c(O)c(Br)c1`, inactive: 2.54. Regarding `O=C(c1ccc(F)cc1)N1CCC[C@H](c2nc(-c3ccc(F)cc3)no2)C1`, the “nuclei number (z-score)” value was inactive: 0.543. As for `Cc1ccc(Cl)cc1N(CC(=O)Nc1c(F)cccc1F)S(C)(=O)=O`, the “nuclei number (z-score)” value was inactive: 0.184. The result for `Cc1cccc(Nc2ccncc2S(=O)(=O)NC(=O)NC(C)C)c1` [Torsemide] reads inactive: 0.325; that for `NS(=O)(=O)c1ccc(NC(=O)Nc2ccc(F)cc2)cc1`, inactive: 4.18.

Take `S=c1[nH]cnc2nc[nH]c12` [Mercaptopurine (6-MP)]: the “nuclei number (z-score)” value was inactive: -1.79.

With `O=C(NCCCNc1nc(Nc2cccc(NC(=O)N3CCCC3)c2)ncc1I)c1cccs1`, the “nuclei number (z-score)” value was inactive: 0.239. The result for `CN(Cc1ccc(C(C)(C)C)cc1)Cc1cccc2ccccc12` [Butenafine HCl] reads inactive: -0.0631. For `Cc1cccc(-c2[nH]ncc2-c2ccc3ncccc3n2)n1` the value was inactive: -0.364; for `Cc1nc2c(O)cccc2c(=O)[nH]1`, inactive: 3.55.

With `O=C(NNc1ccccc1)c1ccncc1`, the “nuclei number (z-score)” value was inactive: 0.078. For `CC(C)n1cnc2c(NCCc3ccc(O)cc3)nc(-c3csc4ccccc34)nc21` [StemRegenin 1 (SR1)] the value was inactive: -0.586; for `c1cc(CN2CCCNCCNCCCNCC2)ccc1CN1CCCNCCNCCCNCC1` [Plerixafor 8HCl (AMD3100 8HCl)], inactive: -0.629; for `O=c1[nH]c(=O)n([C@H]2C[C@H](O)[C@@H](CO)O2)cc1C(F)(F)F` [Trifluridine], inactive: 0.557. The result for `Cn1cncc1[C@@](N)(c1ccc(Cl)cc1)c1ccc2c(c1)c(-c1cccc(Cl)c1)cc(=O)n2C` [Tipifarnib] reads inactive: -0.766; that for `Cc1nnc(SCC2=C(C(=O)O)N3C(=O)[C@@H](NC(=O)Cn4cnnn4)[C@H]3SC2)s1` [Cefazolin Sodium], inactive: 0.838; that for `Cc1cc(C#N)cc(C)c1Oc1nc(Nc2ccc(C#N)cc2)nc(N)c1Br` [Etravirine (TMC125)], inactive: 0.264. With `COc1ccc2c3c1O[C@H]1C[C@@H](O)C=C[C@@]31CCN(C)C2` [Galanthamine HBr], the “nuclei number (z-score)” value is inactive: 1.41. For `Cc1cc(F)c(Nc2ncnc3cc(OCc4ccccc4)ccc23)cc1O`, the “nuclei number (z-score)” value is inactive: 2.09. For `COc1c(C)c2c(c(O)c1C/C=C(\C)CCC(=O)OCCN1CCOCC1)C(=O)OC2` [Mycophenolate Mofetil] the value was inactive: 0.392; for `CN1C(C(=O)Nc2ccccn2)=C(O)c2ccccc2S1(=O)=O` [Piroxicam], inactive: 0.475; for `COCCOC(=O)C1=C(C)NC(C)=C(C(=O)OC(C)C)C1c1cccc([N+](=O)[O-])c1` (stereo not drawn) [Nimodipine], inactive: -0.998.

Turning to `NCCS` [Cysteamine HCl], the “nuclei number (z-score)” value was inactive: 0.153. For `O=C(NCc1cccc(O)c1)Nc1nc(-c2ccncc2)cs1` the value was inactive: 3.08; for `COC(=O)CCc1ccc(OCC(O)CNC(C)C)cc1` (stereo not drawn) [Esmolol HCl], active: -5.25. For `O=C(O)c1ccc(-n2nc(-c3ccccc3O)nc2-c2ccccc2O)cc1` [Deferasirox] the value was inactive: 1.18; for `Oc1ccc(Cc2nc3c(Cc4ccccc4)nc(-c4ccc(O)cc4)cn3c2O)cc1` [Coelenterazine], inactive: 3.01.

Take `C[C@H]1COC2(CCN(c3nc(=O)c4cc(C(F)(F)F)cc([N+](=O)[O-])c4s3)CC2)O1` (racemic) [BTZ043 Racemate]: the “nuclei number (z-score)” value was inactive: -0.0424. Take `CC1(C)[C@@H](O)CC[C@]2(C)[C@H]3C(=O)C=C4[C@@H]5C[C@@](C)(C(=O)O)CC[C@]5(C)CC[C@@]4(C)[C@]3(C)CC[C@@H]12` [Enoxolone]: the “nuclei number (z-score)” value is inactive: -0.536.

For the compound `CC1(C)CC(=O)c2c(C(F)(F)F)nn(-c3ccc(C(N)=O)c(N[C@H]4CC[C@H](OC(=O)CN)CC4)c3)c2C1`, the “nuclei number (z-score)” value is active: -8.18.

In the case of `O=C(CCCN1CCC(O)(c2ccc(Cl)cc2)CC1)c1ccc(F)cc1` [Haloperidol], the “nuclei number (z-score)” value is inactive: -0.962. Consider `COc1cc2c(cc1OC)[C@@H]1Cc3ccc(OC)c(OC)c3CN1CC2` [Rotundine], for which the “nuclei number (z-score)” value was inactive: 8.97.
